Results as given in the supplement of paper PMC11383711.
The list shows a part of the results. Binding of human antibodies (heavy:light variable regions, tested as scFv in one mRNA-display pool) to influenza hemagglutinin, with or without the stem antibody CR9114 bound first. Score = (mean enrichment − median) / interquartile range of that screen; higher = more enriched, 0 = typical non-binder. Active = above the paper's cut-off per screen: stems 28; unblocked H1 Solomon Islands 5, H1 Michigan 3, H3 5, H5 19, H7 2.85, both B 5; blocked 9, 7, H5 10, H7 10, B Phuket 10, B Lee 11.5. Scores are scaled within each screen and are no affinities; replicates correlate at about 0.6 to 0.9, and antibodies rare in the pool are noisier.

Experiments:
Assay in all cases: mRNA display binding score; higher = more enriched on the antigen
[1] = target: Influenza A H1N1 A/Michigan/45/2015 hemagglutinin ectodomain
Description: (§1)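 A pool of natively paired antibodies, displayed as scFv on mRNA, was selected once on antigen-coated beads and sequenced before and after; two replicates.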

[2] = target: Influenza A H1N1 A/Solomon Islands/3/2006 hemagglutinin ectodomain
Description: as §1

[3] = target: Influenza A H3N2 A/Singapore/INFIMH-16-0019/2016 hemagglutinin ectodomain; conditions: antigen blocked with: nothing
Description: as §1

[4] = target: Influenza A H5N1 A/Qinghai/1A/2005 hemagglutinin ectodomain
Description: as §1

[5] = target: Influenza A H7N9 A/Shanghai/2/2013 hemagglutinin ectodomain
Description: as §1

[6] = target: Influenza B/Lee/1940 hemagglutinin ectodomain
Description: as §1

[7] = target: Influenza B/Phuket/3073/2013 hemagglutinin ectodomain
Description: as §1

[8] = antigen blocked with: 2 µM CR9114 IgG

Measured: mRNA display binding score

B1: W85-2A08 (protein)
chain 1: EVQLVESGGGLVKPGESLTLSCAASQFAFRDYAMNWVRQAPGRGLEWVSCINGNSRYTYYADSVRGRFAISRDNAGETLYLQLNSLRAEDTALYYCARGSFGPGSYYTFEHYHMDVWGKGTTVTVSS
chain 2: QSALTQPASVSGSPGEAITISCTGSTSDIENYNSVSWYQQHPGQAPKLIIYDVTNRPSGVPLRFSGSKSGNTASLTISGLQAEDEADYSCSSYSSTTSLYVFGSGTKVT
inactive: [1]; [8] 0.258 | [1]; antigen blocked with: nothing -0.00641 | [2]; [8] 0.644 | [2]; antigen blocked with: nothing 0.292 | [3] 0.108 | [4]; [8] 0.488 | [4]; antigen blocked with: nothing 1.41 | [5]; [8] -0.00195 | [5]; antigen blocked with: nothing 0.293
active: [6]; [8] 21.9 | [6]; antigen blocked with: nothing 78.5 | [7]; [8] 40 | [7]; antigen blocked with: nothing 24.2

B2: 042-10-4C01 (protein)
chain 1: QVQLVESGGGVVQPGRSLRLSCPASGFSFTTYGMHWVRQAPGKGLEWVAVISYDGRHQYYGDSVKGRFSISRDKSKNILFLQMNSLRAEDTAVYYCARDFTGYFGMDVWGQGTTVTVSS
chain 2: QSVLTQPPSASATPGQRVTISCSGSSSNVGKASVSWYRQLPGAAPKLLMYNTNQRPSGVPDRFSGSKSGTTASLAISGLQSEDEADYYCGAWDDSRNGFYVFGTGTKVTVL
inactive: [1]; [8] -0.0767 | [1]; antigen blocked with: nothing -0.0404 | [2]; [8] 0.199 | [2]; antigen blocked with: nothing 0.0792 | [3] 0.136 | [4]; [8] 0.419 | [4]; antigen blocked with: nothing -0.0769 | [5]; [8] 0.183 | [5]; antigen blocked with: nothing 0.0779 | [6]; [8] -0.376 | [6]; antigen blocked with: nothing -0.222 | [7]; [8] -0.118 | [7]; antigen blocked with: nothing -0.195

B3: K77-2D02 (protein)
chain 1: EVQLVESGGGVVQPGGALRLSCAASGFTFSSYGMHWVRQAPGKGLEWVAYISYDGSEKTYADPLKGRFTIARDRSTNTLYLQMNRLRPEDTAVYHCARVKDSYYLEYWGQGTLVTVSS
chain 2: QSALTQPASVSGSPGQSITISCTGTSSDVGIYDLVSWYQQHPGKAPKLMIYEVNERPSGVSNRFSGSKSGNTASLTISGLQTEDEADYYCCSYAGSDTWVFGGGTKLT
active: [7]; antigen blocked with: nothing 13.8
inactive: [1]; [8] -0.517 | [1]; antigen blocked with: nothing -0.629 | [2]; [8] -0.327 | [2]; antigen blocked with: nothing -0.45 | [3] -0.561 | [4]; [8] -0.555 | [4]; antigen blocked with: nothing -0.0684 | [5]; [8] -0.692 | [5]; antigen blocked with: nothing -0.593 | [6]; [8] -0.261 | [6]; antigen blocked with: nothing 1.18 | [7]; [8] 5.31

B4: 01.h.02 (protein)
chain 1: EVQLLESGGGLVKRGGSLRLSCAASGFTFSAYGMSWVRQVPGGGLEWVSGVGGSGFGTDYADSVKGRFTISRDNSKNILYLQMNTLRAEDTAVYYCAKGVNWQPPYWYDYWGQGTLVTVSS
chain 2: DIVMTQDPVTLPVSLGERATIKCKSSQSVLSSSNNKNQLAWYQQRPGQPPKLLIYWASTRQSGVPERFSGSGSGTDFTLTVDVLLPEDVAVYYCQQYVSTPYTFGQGTKLEIK
active: [3] 18.3
inactive: [1]; [8] -0.145 | [1]; antigen blocked with: nothing 0.288 | [2]; [8] -0.183 | [2]; antigen blocked with: nothing 0.253 | [4]; [8] 0.0856 | [4]; antigen blocked with: nothing 0.116 | [5]; [8] -0.698 | [5]; antigen blocked with: nothing 0.38 | [6]; [8] -0.351 | [6]; antigen blocked with: nothing -0.0489 | [7]; [8] -0.00129 | [7]; antigen blocked with: nothing 0.0904

B5: K77-1F06 (protein)
chain 1: QVLLVQSGPEVKKPGASVKVSCKASGYTFTASYMHWVRQAPGQGLEWMGVINPRHGNIAYAKKFLGRVTMTRDTSTSTVYMELTSLRSEDTAVYYCARDLREMDVPGPYGMDVWGQGTTVIVSS
chain 2: EIVLTQSPVTLSLSPGERATLSCRASQTISSSYLAWYQQKPGQAPRLLIYGTSSRATGIPDRFSGFGSGPDFTLTISRLESEDFAVYYCQQYGGSPPATFGQGTRVDIK
inactive: [1]; [8] 0.946 | [1]; antigen blocked with: nothing 0.295 | [2]; [8] 0.128 | [2]; antigen blocked with: nothing -0.126 | [3] 0.411 | [4]; [8] 0.257 | [4]; antigen blocked with: nothing 0.0455 | [5]; [8] 0.792 | [5]; antigen blocked with: nothing 0.0622 | [7]; [8] -0.0431 | [7]; antigen blocked with: nothing -0.419
active: [6]; [8] 16.3 | [6]; antigen blocked with: nothing 20.7
